# Measured values published in PubChem BioAssay AID1347165 (National Center for Advancing Translational Sciences (NCATS), 2019).
# The campaign covered roughly 220,000 compounds. About 5,700 (2.6%) were called active. Inconclusive results, whose numbers are uncertain, are shown with a selection of clear calls. The call rests on the fitted dose curve; in most records, active means well fitted inhibition curve with a large enough effect; inconclusive means small, poorly fitted or top-dose-only effect; inactive means no such curve, though single readings can be large or run the other way. Potencies of inconclusive entries are doubtful fits and often do not repeat.
# Biological target: Lysine-specific demethylase 5B (Homo sapiens) (UniProt Q9UGL1)
# Test: Primary screen for KDM5B Histone Demethylases FDH-coupled qHTS; further: nearly all actives have a fitted effect of over 70% in size
# Details: FDH-coupled NADH fluorescence (FDH is formaldehyde dehydrogenase); series mostly up to 57.7 µM
# In short: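 Inhibition is measured as reduced NADH fluorescence generation from FDH coupling to formaldehyde release. Truncated KDM5BΔAP at 200 nM final acts on H3K4me3 peptide (12.5 µM in substrate mix) in pH 7.5 HEPES buffer with Tween-20, 30 min, room temperature.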
# Potency means the concentration at half of the fitted maximal effect; tags describe the fitted curve by direction and shape.
# Chain of UniProt Q9UGL1 (Q9UGL1 whole entry, looked up): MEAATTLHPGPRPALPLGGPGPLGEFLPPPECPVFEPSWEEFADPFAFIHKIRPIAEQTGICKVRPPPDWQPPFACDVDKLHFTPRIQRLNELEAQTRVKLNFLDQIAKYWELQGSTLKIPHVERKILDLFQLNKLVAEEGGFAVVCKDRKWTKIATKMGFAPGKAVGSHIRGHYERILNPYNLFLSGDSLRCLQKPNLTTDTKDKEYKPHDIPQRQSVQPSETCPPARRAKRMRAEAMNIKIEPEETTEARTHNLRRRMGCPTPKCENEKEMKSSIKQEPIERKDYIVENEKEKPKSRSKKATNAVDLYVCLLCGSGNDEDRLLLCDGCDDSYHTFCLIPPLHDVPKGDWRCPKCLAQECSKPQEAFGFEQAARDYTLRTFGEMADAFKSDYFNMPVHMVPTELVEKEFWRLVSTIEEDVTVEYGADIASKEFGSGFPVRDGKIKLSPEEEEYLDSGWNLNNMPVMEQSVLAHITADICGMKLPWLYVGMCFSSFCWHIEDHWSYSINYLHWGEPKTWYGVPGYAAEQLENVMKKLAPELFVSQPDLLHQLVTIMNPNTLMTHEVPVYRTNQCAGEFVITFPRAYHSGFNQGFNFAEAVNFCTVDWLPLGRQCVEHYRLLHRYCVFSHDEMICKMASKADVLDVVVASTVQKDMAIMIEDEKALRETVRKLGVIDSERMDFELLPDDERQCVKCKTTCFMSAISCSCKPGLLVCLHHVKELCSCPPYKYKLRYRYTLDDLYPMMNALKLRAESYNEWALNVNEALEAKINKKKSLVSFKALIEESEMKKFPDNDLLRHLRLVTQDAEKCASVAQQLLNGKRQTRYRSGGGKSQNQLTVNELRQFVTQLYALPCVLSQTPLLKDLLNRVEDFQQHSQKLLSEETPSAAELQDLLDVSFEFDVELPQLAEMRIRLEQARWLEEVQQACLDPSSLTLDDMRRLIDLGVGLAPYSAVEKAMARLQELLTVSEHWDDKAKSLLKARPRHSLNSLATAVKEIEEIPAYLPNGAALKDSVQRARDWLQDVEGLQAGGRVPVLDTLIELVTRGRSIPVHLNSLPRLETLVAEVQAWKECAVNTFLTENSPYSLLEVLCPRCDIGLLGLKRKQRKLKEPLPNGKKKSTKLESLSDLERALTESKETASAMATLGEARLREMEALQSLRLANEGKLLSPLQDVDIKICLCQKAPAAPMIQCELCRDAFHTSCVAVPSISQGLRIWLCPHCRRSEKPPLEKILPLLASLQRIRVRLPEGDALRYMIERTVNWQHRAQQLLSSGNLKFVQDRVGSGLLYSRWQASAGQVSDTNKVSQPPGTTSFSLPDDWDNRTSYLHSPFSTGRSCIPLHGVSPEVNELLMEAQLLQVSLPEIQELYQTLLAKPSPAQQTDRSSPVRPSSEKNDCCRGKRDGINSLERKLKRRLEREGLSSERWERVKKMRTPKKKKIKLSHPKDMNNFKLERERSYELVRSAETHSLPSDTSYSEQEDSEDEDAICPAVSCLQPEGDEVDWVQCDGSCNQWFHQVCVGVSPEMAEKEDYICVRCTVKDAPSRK
row,SMILES,Potency
1,O=C(N[C@@H](Cn1cc(Cl)c(=O)[nH]c1=O)C(=O)O)C1CCC1,inactive
2,O=C(Nc1nc2n(n1)C(c1ccc(F)cc1)C=C(c1ccccc1)N2)c1cccc([N+](=O)[O-])c1 (configuration not stated),"inconclusive: 25.1 µM [inhibitor, single point]"
3,Cc1ccc(C(=O)NCc2nc(C)cs2)c(C)c1,inactive
4,COC(=O)[C@@H]1Cc2c([nH]c3ccccc23)[C@H]2C[C@@H](NCc3cccs3)C[C@@H](c3ccc(F)cc3)N21,"inconclusive: 25.1 µM [inhibitor, partial curve]"
5,O=C(Cc1c[nH]c2ccccc12)Nc1cccc(F)c1,inactive
6,COc1cc2c(=O)c(S(=O)(=O)c3ccccc3)cn(CC(=O)Nc3ccccc3C)c2cc1OC,"inconclusive: 17.8 µM [inhibitor, partial curve, poor fit]"
7,Cc1ccc2c(C(=O)N3CCN(c4ccccc4F)CC3)cc(NC(=O)C(C)C)cc2n1,"inconclusive: 31.6 µM [inhibitor, partial curve, poor fit]"
8,CCOc1ccc(Nc2ccc3nonc3c2[N+](=O)[O-])cc1,inactive
9,COC1C(=O)N(c2cccc(F)c2)C12CCN(C(=O)c1cc3ccccc3[nH]1)CC2 (configuration not stated),"inconclusive: 28.2 µM [inhibitor, single point]"
10,COc1ccc(-c2coc3cc(OC(=O)C(C)(C)C)ccc3c2=O)cc1OC,"inconclusive: 14.1 µM [inhibitor, partial curve, poor fit]"
11,O=c1n(-c2ccc([N+](=O)[O-])cc2)nc2n1CCN(CC1CC1)C2,"inconclusive: 39.8 µM [inhibitor, partial curve, poor fit]"
12,Cc1cc(Cl)ccc1NC(=O)c1cc2ccccn2n1,inactive
13,CCCN1CCN(CCCNC(=O)Cn2c(-c3cccs3)cc3cc(Cl)ccc32)CC1,"inconclusive: 28.2 µM [inhibitor, partial curve, poor fit]"
14,Cc1ccc(CNC(=O)CSC2=Nc3ccccc3C3=NC(C)C(=O)N23)cc1 (configuration not stated),"inconclusive: 31.6 µM [inhibitor, partial curve, poor fit]"
15,O=C(O)[C@]12CCCN(Cc3ncc[nH]3)[C@@H]1CCN(Cc1ccncc1)C2,"inconclusive: 17.8 µM [inhibitor, single point]"
16,COc1ccc(-c2cc(N3CCCN(C(=O)CC4CCCCC4)CC3)n[nH]2)cc1,"inconclusive: 15.8 µM [inhibitor, partial curve]"
17,O=c1cc(CSc2ccc3c(c2)OCCO3)c2c(ccc3ccccc32)o1,"inconclusive: 31.6 µM [inhibitor, partial curve, poor fit]"
